Reference: patent publication US20250223331A1, “GLP-1/GIP DUAL-TARGETED POLYPEPTIDE AND FUSION PROTEIN AND APPLICATIONS THEREOF” (SUNSHINE LAKE PHARMA CO., LTD., priority 2021, published 2025)
Positions count from the first letter of the chain named. Marks after values point to notes of the source that are not given here.

Columns and labels:
GLP-1R = GLP-1R (UniProt P43220); experiment: cell-based or functional assay
GIPR = target: T1, GIPR (UniProt P48546 22-466, limits assumed); experiment: cell-based or functional assay
T1 sequence (looked up): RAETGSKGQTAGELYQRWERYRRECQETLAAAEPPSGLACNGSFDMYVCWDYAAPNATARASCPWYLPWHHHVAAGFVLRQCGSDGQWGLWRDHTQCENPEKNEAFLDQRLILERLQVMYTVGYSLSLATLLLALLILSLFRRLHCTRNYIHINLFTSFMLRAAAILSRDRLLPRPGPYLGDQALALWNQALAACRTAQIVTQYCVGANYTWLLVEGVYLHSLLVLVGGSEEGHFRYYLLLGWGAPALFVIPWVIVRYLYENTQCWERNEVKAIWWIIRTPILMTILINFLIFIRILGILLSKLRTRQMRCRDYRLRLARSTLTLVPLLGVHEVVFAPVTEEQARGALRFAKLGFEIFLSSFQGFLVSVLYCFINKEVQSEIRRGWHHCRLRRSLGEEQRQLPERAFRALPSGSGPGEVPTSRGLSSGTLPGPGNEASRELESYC

DIO mice = experiment: in vivo efficacy in DIO model: body weight, food intake, liver, blood biochemistry
Source text: Experimental methods: C57/BL6 mice were randomly divided into normal group NFD and model group HFD at the fifth week of age, and the normal group was fed with ordinary maintenance diet, while the model group was fed with high-fat diet D12492. Changes in body weight and food intake in mice were monitored every 3 weeks. After 16 weeks of feeding, the body weight of mice in the model group and the normal group were (47.9±3.4) g and (29.6±1.5) g, respectively, and the difference between the two groups was statistically significant. The normal group was divided into the control group, and the model group mice that were successfully modeled were divided into Vehicle group, Semaglutide group, HEC-G115 group and HEC-G124 group, with 10 mice in each group. For the groups of Semaglutide, HEC-G115 and HEC-G124, the corresponding drug was injected subcutaneously in each group, and PBS was injected subcutaneously in the Vehicle group. […] Weight and food intake were measured before each dose. After 3 weeks of administration, an intraperitoneal glucose tolerance test was performed. After 72 h of the last administration, samples were collected, liver weight was recorded, and liver pathological status and blood biochemical indexes were detected in each group.

[1] = long-term administration 10 nmol/kg s.c., 72 h after last administration
[2] = long-term administration 10 nmol/kg s.c., blood biochemistry

B1: HEC-G124 (Fc fusion)
chain: YSEGTFTSDYSILLDKIAQREFVQWLIAGGPSSGAPPPSGGGGSGGGGSGGGGSA[here human IgG4 Fc with S228P F234A L235A (EU numbers) without letters]
- EC50, cAMP (GLP-1R): 0.168 nM
- EC50, cAMP (GIPR): 0.024 nM

B2: HEC-G125 (Fc fusion)
chain: B1 chain with E21A
- EC50, cAMP (GLP-1R): 0.354 nM
- EC50, cAMP (GIPR): 0.057 nM

B3: HEC-G126 (Fc fusion)
chain: B1 chain with S2G, V23I, Q24E, I27L
- EC50, cAMP (GLP-1R): 0.965 nM
- EC50, cAMP (GIPR): 0.015 nM

B4: HEC-G127 (Fc fusion)
chain: B1 chain with I17K, E21D, V23I, Q24E, I27L
- EC50, cAMP (GLP-1R): 0.477 nM
- EC50, cAMP (GIPR): 0.042 nM

B5: HEC-G128 (Fc fusion)
chain: B1 chain with S2G, I17K, E21D, V23I, Q24E, I27L
- EC50, cAMP (GLP-1R): 0.394 nM
- EC50, cAMP (GIPR): 0.112 nM

B6: HEC-G129 (Fc fusion)
chain: B1 chain with I17K, E21D, V23I, Q24E
- EC50, cAMP (GLP-1R): 0.066 nM
- EC50, cAMP (GIPR): 0.059 nM

B7: HEC-G130 (Fc fusion)
chain: B1 chain with I17K, E21D
- EC50, cAMP (GLP-1R): 0.052 nM
- EC50, cAMP (GIPR): 0.318 nM

B8: HEC-G131 (Fc fusion)
chain: B1 chain with E21D, Q24E
- EC50, cAMP (GLP-1R): 0.277 nM
- EC50, cAMP (GIPR): 0.028 nM

B9: HEC-G132 (Fc fusion)
chain: B1 chain with S2G, E21D, Q24E
- EC50, cAMP (GLP-1R): 0.285 nM
- EC50, cAMP (GIPR): 0.027 nM

B10: HEC-G133 (Fc fusion)
chain: B1 chain with R20Q, E21D, Q24E, I27L
- EC50, cAMP (GLP-1R): 63.2 nM
- EC50, cAMP (GIPR): 0.006 nM

B11: HEC-G134 (Fc fusion)
chain: B1 chain with R20Q, V23I, Q24E, I27L
- EC50, cAMP (GLP-1R): 16.3 nM
- EC50, cAMP (GIPR): 0.004 nM

B12: HEC-G135 (Fc fusion)
chain: B1 chain with R20Q, V23I, Q24E
- EC50, cAMP (GLP-1R): 1.27 nM
- EC50, cAMP (GIPR): 0.033 nM

B13: HEC-G136 (Fc fusion)
chain: B1 chain with I17K, R20Q, E21D, V23I, Q24E, I27L
- EC50, cAMP (GLP-1R): 8.22 nM
- EC50, cAMP (GIPR): 0.018 nM

B14: HEC-G137 (Fc fusion)
chain: B1 chain with I17K, R20Q, E21D, V23I, Q24E
- EC50, cAMP (GLP-1R): 0.357 nM
- EC50, cAMP (GIPR): 0.021 nM

B15: HEC-G01 (Fc fusion)
chain: B1 chain with S2A, L13Y, I17Q, Q19A, R20K, Q24N, I27L
- EC50, cAMP (GLP-1R): 0.582 nM
- EC50, cAMP (GIPR): 10.2 nM

B16: HEC-G02 (Fc fusion)
chain: B1 chain with S2G, L13Y, I17Q, Q19A, R20K, Q24N, I27L
- EC50, cAMP (GLP-1R): 0.451 nM
- EC50, cAMP (GIPR): 16.1 nM

B17: HEC-G03 (Fc fusion)
chain: B1 chain with S2G, L13A, I17Q, Q19A, R20K, Q24N, I27L
- EC50, cAMP (GLP-1R): 4.05 nM
- EC50, cAMP (GIPR): 2.42 nM

B18: HEC-G06 (Fc fusion)
chain: B1 chain with S2G, L13Y, I17K, E21D, Q24E, I27L, G29Q
- EC50, cAMP (GLP-1R): 1.59 nM
- EC50, cAMP (GIPR): 0.585 nM

B19: HEC-G07 (Fc fusion)
chain: B1 chain with S2G, L13A, R20K, E21A
- EC50, cAMP (GLP-1R): 1.06 nM
- EC50, cAMP (GIPR): 4.83 nM

B20: HEC-G08 (Fc fusion)
chain: B1 chain with S2G, L13Y, R20K, E21A
- EC50, cAMP (GLP-1R): 1.58 nM
- EC50, cAMP (GIPR): 15.8 nM

B21: HEC-G09 (Fc fusion)
chain: B1 chain with S2G, L13A, Q19A, R20K, E21A
- EC50, cAMP (GLP-1R): 0.165 nM
- EC50, cAMP (GIPR): 18.8 nM

B22: HEC-G10 (Fc fusion)
chain: B1 chain with S2G, L13A, I17Q, Q19A, R20K, E21A
- EC50, cAMP (GLP-1R): 0.264 nM
- EC50, cAMP (GIPR): 15.5 nM

B23: HEC-G11 (Fc fusion)
chain: B1 chain with S2G, L13A, I17Q, A18R, Q19A, R20K, E21D
- EC50, cAMP (GLP-1R): 0.497 nM
- EC50, cAMP (GIPR): 11.2 nM

B24: HEC-G20 (Fc fusion)
chain: B1 chain with S2G, L13Y, I17K, E21D, Q24E, I27L
- EC50, cAMP (GLP-1R): 0.262 nM
- EC50, cAMP (GIPR): 0.197 nM

B25: HEC-G21 (Fc fusion)
chain: B1 chain with S2G, L13Y, I17K, E21D, Q24E, I27K
- EC50, cAMP (GLP-1R): 0.134 nM
- EC50, cAMP (GIPR): 22.8 nM

B26: HEC-G22 (Fc fusion)
chain: B1 chain with S2G, L13Y, I17K, E21D, Q24E, I27V, A28K
- EC50, cAMP (GLP-1R): 0.165 nM
- EC50, cAMP (GIPR): 2.58 nM

B27: HEC-G23 (Fc fusion)
chain: B1 chain with S2G, L13Y, I17K, E21D, Q24E
- EC50, cAMP (GLP-1R): 0.054 nM
- EC50, cAMP (GIPR): 0.301 nM

B28: HEC-G24 (Fc fusion)
chain: B1 chain with S2G, L13A, I17K, E21D, Q24E, I27L, G29Q
- EC50, cAMP (GLP-1R): 59.1 nM
- EC50, cAMP (GIPR): 0.675 nM

B29: HEC-G25 (Fc fusion)
chain: B1 chain with S2G, L13A, I17K, E21D, V23I, Q24E, I27L, G29Q
- EC50, cAMP (GLP-1R): 3.75 nM
- EC50, cAMP (GIPR): 0.134 nM

B30: HEC-G28 (Fc fusion)
chain: B1 chain with S2G, L13Y, I17K, E21D, I27L, G29Q
- EC50, cAMP (GLP-1R): 1.97 nM
- EC50, cAMP (GIPR): 0.295 nM

B31: HEC-G29 (Fc fusion)
chain: B1 chain with S2G, L13Y, I17K, E21D, V23I, I27L, G29Q
- EC50, cAMP (GLP-1R): 2.73 nM
- EC50, cAMP (GIPR): 0.163 nM

B32: HEC-G124: fusion protein of SEQ ID NO: 104 polypeptide, linker peptide and Fc fragment (protein)
chain: B1 chain
- effect on liver function and blood lipids (DIO mice): significantly improved the liver function and blood lipids
- Cumulative food intake D 7-10 (DIO mice; 10 nmol/kg s.c. repeated, D 7-10): 14.3 g/pcs
- Weight growth rate D 10 (DIO mice; 10 nmol/kg s.c. repeated, D 10): −15.5 ± 2.8%
- Cumulative food intake D 11-13 (DIO mice; 10 nmol/kg s.c. repeated, D 11-13): 19.7 g/pcs
- Weight growth rate D 13 (DIO mice; 10 nmol/kg s.c. repeated, D 13): −18.8 ± 3.9%
- Cumulative food intake D 14-16 (DIO mice; 10 nmol/kg s.c. repeated, D 14-16): 25.0 g/pcs
- Weight growth rate D 16 (DIO mice; 10 nmol/kg s.c. repeated, D 16): −19.1 ± 3.5%
- Cumulative food intake D 17-19 (DIO mice; 10 nmol/kg s.c. repeated, D 17-19): 31.3 g/pcs
- Weight growth rate D 19 (DIO mice; 10 nmol/kg s.c. repeated, D 19): −19.9 ± 4.4%
- Cumulative food intake D 20-22 (DIO mice; 10 nmol/kg s.c. repeated, D 20-22): 37.6 g/pcs
- Weight growth rate D 22 (DIO mice; 10 nmol/kg s.c. repeated, D 22): −20.0 ± 3.5%
- Cumulative food intake D 23-27 (DIO mice; 10 nmol/kg s.c. repeated, D 23-27): 47.6 ^a g/pcs
- Weight growth rate D 25 (DIO mice; 10 nmol/kg s.c. repeated, D 25): −19.2 ± 5.3^a %
- Cumulative food intake D 0 (DIO mice; 10 nmol/kg s.c., D 0): 0.4 g/pcs
- Weight growth rate D 0 (DIO mice; 10 nmol/kg s.c., D 0): 0.0 ± 0.0%
- Cumulative food intake D 1 (DIO mice; 10 nmol/kg s.c., D 1): 1.2 g/pcs
- Weight growth rate D 1 (DIO mice; 10 nmol/kg s.c., D 1): −6.0 ± 1.0%
- Cumulative food intake D 2 (DIO mice; 10 nmol/kg s.c., D 2): 2.6 g/pcs
- Weight growth rate D 2 (DIO mice; 10 nmol/kg s.c., D 2): −8.9 ± 1.2%
- Cumulative food intake D 3 (DIO mice; 10 nmol/kg s.c., D 3): 4.8 g/pcs
- Weight growth rate D 3 (DIO mice; 10 nmol/kg s.c., D 3): −9.3 ± 2.1%
- Cumulative food intake D 4 (DIO mice; 10 nmol/kg s.c., D 4): 7.2 g/pcs
- Weight growth rate D 4 (DIO mice; 10 nmol/kg s.c., D 4): −8.8 ± 3.0%
- Cumulative food intake D 5 (DIO mice; 10 nmol/kg s.c., D 5): 8.7 g/pcs
- Weight growth rate D 5 (DIO mice; 10 nmol/kg s.c., D 5): −8.3 ± 2.8%
- Cumulative food intake D 6 (DIO mice; 10 nmol/kg s.c., D 6): 11.4 g/pcs
- Weight growth rate D 6 (DIO mice; 10 nmol/kg s.c., D 6): −8.4 ± 2.6%
- Weight growth rate D 7 (DIO mice; 10 nmol/kg s.c., D 7): −7.1 ± 2.9%
- Liver (DIO mice; liver weight, long-term administration 10 nmol/kg s.c., 72 h after last administration): 0.9 ± 0.1 ^a g
- Body weight (DIO mice; [1]): 32.8 ± 2.9 ^a g
- Liver index (DIO mice; [1]): 2.8 ± 0.0 ^a %
- ALT (DIO mice; [2]): 28.3 ± 5.8 ^a U/L
- AST (DIO mice; [2]): 115.3 ± 22.6 ^a U/L
- CHOL (DIO mice; [2]): 2.6 ± 0.3^a mmol/L
- TRIGL (DIO mice; [2]): 1.0 ± 0.2 mmol/L
- weight loss and feeding inhibition effects compared with Semaglutide (DIO mice; once every three days, after 4 weeks, same dose): comparable to those of the control group Semaglutide
